Assay results published in ChEMBL document CHEMBL4888484, “Replenishing the malaria drug discovery pipeline: Screening and hit evaluation of the MMV Hit Generation Library 1 (HGL1) against asexual blood stage Plasmodium falciparum ,using a nano luciferase reporter read-out” (2022).
About 540 (0.36%) of roughly 150,000 compounds showed an effect of 50% or more. The list shows a part of the results.

system: Plasmodium falciparum; test: Primary screen in NF54 nanoGlo assay, in single point, at 2uM, 72h; a lower Z score goes with more inhibition; assay type: functional, Erythrocyte; details: timepoint 72 hour

Compared with `O=C(NCc1ccncc1)C1CC1c1cccc2ccccc12` (configuration not stated), `CCNC(=O)[C@@H]1C[C@H](NCc2cc(C)ccc2C)CN1Cc1cccc2ccccc12` is higher in “% Inhibition” value: 4% for the first, 14% for the second.

Compared with `CCn1c(C)nnc1CS(=O)(=O)c1cccc(Br)c1`, `CCn1cc(S(=O)(=O)NCc2cc(C(C)C)on2)cn1` is lower in “% Inhibition” value: 0% for the first, -9% for the second.

Going from `COc1nc(NC(=O)[C@H]2CCc3[nH]nc(C(F)(F)F)c3C2)n[nH]1` to `O=C(Nc1nccc(-c2cncc(F)c2)n1)[C@H]1CCCO1`, the “% Inhibition” value falls from 0% to -8%.

Going from `c1cc(CO[C@H]2CCOC2)cc(-c2cnn3c2OCCC3)c1` to `COc1cccc(CN2C(=O)CCCC[C@H]2C(=O)NCCc2c[nH]c3ccc(OC)cc23)c1`, the “% Inhibition” value rises from -15% to -14%.

Compared with `CC(C)CNc1nc(-c2ccccc2Cl)c2c(N)n(C)nc2n1`, `CC[C@H](C)N(Cc1c(-c2ccccc2)nn(C)c1N(C)C)C(=O)C1CCC1` is lower in “% Inhibition” value: -1% for the first, -4% for the second.

First: O=C(NCCCNC(=O)[C@@H]1CCCN1C(=O)COc1ccc(Cl)cc1)c1ccc(F)cc1
Second: O=C(NCCCNc1cccc(F)c1)c1cccnc1
The “% Inhibition” value of the first is lower: -5% for the first, 27% for the second.

First: COc1cc(N2C[C@@H](C(=O)N3CCn4ncnc4C3)CC2=O)cc(OC)c1OC
Second: CCOC(=O)N1CCN(C(=O)[C@H]2CCc3nn(C)c(=O)cc3C2)CC1
The “% Inhibition” value of the first is higher: -13% for the first, -20% for the second.

First: CCO[C@H]1COC[C@@H]1n1cnc2c(C)cc(Cl)cc2c1=O
Second: CN1C(=O)[C@H]2CN(c3ncccc3F)C[C@H]2C1=O
The “% Inhibition” value of the first is lower: -4% for the first, -3% for the second.

First: Cc1ccccc1CC(=O)Nc1ccc(-c2nc(-c3ccccc3)co2)cc1
Second: Cc1ccccc1Cn1cnc2c1c(=O)n(C1CC1)c(=O)n2-c1ccccc1C
The “% Inhibition” value of the first is lower: -9% for the first, 5% for the second.

Compared with `CC(=O)N[C@@H](C)c1cccc(N2CCOC2=O)c1`, `CC(NC(=O)[C@@H]1CC=CC[C@@H]1C(=O)O)c1ccc(-n2cccn2)cc1` (some centres not stated) is higher in “% Inhibition” value: -5% for the first, -2% for the second.

Going from `N#C[C@H](c1nc2ccccc2nc1N1CCN(c2ccc(F)cc2)CC1)S(=O)(=O)c1cccs1` to `O=C(Cc1cccs1)N1CCN(c2nnc3ccc(C(F)(F)F)cn23)CC1`, the “% Inhibition” value falls from -9% to -25%.

First: Cc1nnc([C@@H]2CC3(CCN(C(=O)c4cccnc4)CC3)CN2Cc2ccccc2)o1
Second: O=C(c1cc2n(n1)CCCC2)N1CC[C@](CO)(c2ccccc2)C1
The “% Inhibition” value of the first is higher: 0% for the first, -7% for the second.

First: Cc1nn(-c2ccncc2F)c(C)c1[C@@H]1CCC(=O)N1
Second: CCCCc1noc(CN2CCc3ccc(F)cc32)n1
The “% Inhibition” value of the first is lower: -10% for the first, -4% for the second.

`NC(=O)CCS(=O)(=O)CCn1cc(-c2cc(F)cc(F)c2)nn1` and `Cc1nn(CCO)c(C)c1-c1cc(-c2cc(F)c(F)c(F)c2)nc(N)c1C#N` are the same in “% Inhibition” value: -5% for the first, -5% for the second.

Compared with `CO[C@@H](C)c1nc(CN(C)c2cccc(-n3cc(C)cn3)n2)cs1`, `CCCCN(Cc1ccco1)C(=O)Nc1ccc(OC)c(C(=O)N(C)C)c1` is lower in “% Inhibition” value: 5% for the first, -11% for the second.

First: COc1cc2c(cc1CNC(=O)c1ccc(C)cc1)OCCCO2
Second: Cc1ccc(C(=O)Nc2ccc3ncnc(N4CCCCC4)c3c2)c(C)c1
The “% Inhibition” value of the first is lower: -20% for the first, -13% for the second.

First: CC(=O)c1ccc2c(c1)N(Cc1cccc(C(=O)N3CCN(Cc4ccc5c(c4)OCO5)CC3)c1)C(=O)CO2
Second: Cc1cc(Cl)cc(C(=O)N2CCC[C@H](Cn3ccnn3)C2)c1
The “% Inhibition” value of the first is lower: -19% for the first, -6% for the second.

First: COCCN(C[C@@H]1CC=CCC1)c1cc(N2CCOCC2)ncn1
Second: COc1ccc2nc3c(cc2c1)c(NC(=O)C1CCCCC1)nn3CC(C)C
The “% Inhibition” value of the first is higher: -3% for the first, -9% for the second.

Compared with `Cc1noc([C@H]2C[C@H](O)CN2c2ccc(C#N)nc2)n1`, `CCC[C@H]1CN(C(=O)CCc2ccccn2)C[C@@H]1N(C)C` is lower in “% Inhibition” value: -4% for the first, -14% for the second.

First: c1ccc2[nH]c(-c3ccc4[nH]c(C5CC5)nc4c3)nc2c1
Second: CCN(CC(=O)NCc1ccccn1)CC1CC1
The “% Inhibition” value of the first is lower: -5% for the first, -3% for the second.

For `C#CC1(OC(=O)Nc2ccccc2)CCCCC1`, the “% Inhibition” value was 5%.

Going from `O=C(NCc1ccncc1)C1CC1c1cccc2ccccc12` (configuration not stated) to `CCNC(=O)[C@@H]1C[C@H](NCc2cc(C)ccc2C)CN1Cc1cccc2ccccc12`, the Z score falls from -0.61 to -1.88.

Compared with `CCn1c(C)nnc1CS(=O)(=O)c1cccc(Br)c1`, `CCn1cc(S(=O)(=O)NCc2cc(C(C)C)on2)cn1` is higher in Z score: -0.04 for the first, 1.69 for the second.

Compared with `COc1nc(NC(=O)[C@H]2CCc3[nH]nc(C(F)(F)F)c3C2)n[nH]1`, `O=C(Nc1nccc(-c2cncc(F)c2)n1)[C@H]1CCCO1` is higher in Z score: -0.03 for the first, 1.16 for the second.

Compared with `c1cc(CO[C@H]2CCOC2)cc(-c2cnn3c2OCCC3)c1`, `COc1cccc(CN2C(=O)CCCC[C@H]2C(=O)NCCc2c[nH]c3ccc(OC)cc23)c1` is higher in Z score: 1.4 for the first, 1.65 for the second.

First: CC(C)CNc1nc(-c2ccccc2Cl)c2c(N)n(C)nc2n1
Second: CC[C@H](C)N(Cc1c(-c2ccccc2)nn(C)c1N(C)C)C(=O)C1CCC1
The Z score of the first is lower: 0.2 for the first, 0.84 for the second.

Going from `O=C(NCCCNC(=O)[C@@H]1CCCN1C(=O)COc1ccc(Cl)cc1)c1ccc(F)cc1` to `O=C(NCCCNc1cccc(F)c1)c1cccnc1`, the Z score falls from 0.86 to -3.06.

First: COc1cc(N2C[C@@H](C(=O)N3CCn4ncnc4C3)CC2=O)cc(OC)c1OC
Second: CCOC(=O)N1CCN(C(=O)[C@H]2CCc3nn(C)c(=O)cc3C2)CC1
The Z score of the first is lower: 1.17 for the first, 2.57 for the second.

Going from `CCO[C@H]1COC[C@@H]1n1cnc2c(C)cc(Cl)cc2c1=O` to `CN1C(=O)[C@H]2CN(c3ncccc3F)C[C@H]2C1=O`, the Z score falls from 0.7 to 0.5.

Going from `Cc1ccccc1CC(=O)Nc1ccc(-c2nc(-c3ccccc3)co2)cc1` to `Cc1ccccc1Cn1cnc2c1c(=O)n(C1CC1)c(=O)n2-c1ccccc1C`, the Z score falls from 1.12 to -0.48.

Compared with `CC(=O)N[C@@H](C)c1cccc(N2CCOC2=O)c1`, `CC(NC(=O)[C@@H]1CC=CC[C@@H]1C(=O)O)c1ccc(-n2cccn2)cc1` (some centres not stated) is lower in Z score: 0.58 for the first, 0.29 for the second.

First: N#C[C@H](c1nc2ccccc2nc1N1CCN(c2ccc(F)cc2)CC1)S(=O)(=O)c1cccs1
Second: O=C(Cc1cccs1)N1CCN(c2nnc3ccc(C(F)(F)F)cn23)CC1
The Z score of the first is lower: 0.81 for the first, 2.76 for the second.

First: Cc1nnc([C@@H]2CC3(CCN(C(=O)c4cccnc4)CC3)CN2Cc2ccccc2)o1
Second: O=C(c1cc2n(n1)CCCC2)N1CC[C@](CO)(c2ccccc2)C1
The Z score of the first is lower: -0.06 for the first, 1.04 for the second.

Going from `Cc1nn(-c2ccncc2F)c(C)c1[C@@H]1CCC(=O)N1` to `CCCCc1noc(CN2CCc3ccc(F)cc32)n1`, the Z score falls from 1.09 to 0.58.

Compared with `NC(=O)CCS(=O)(=O)CCn1cc(-c2cc(F)cc(F)c2)nn1`, `Cc1nn(CCO)c(C)c1-c1cc(-c2cc(F)c(F)c(F)c2)nc(N)c1C#N` is lower in Z score: 0.74 for the first, 0.64 for the second.

First: CO[C@@H](C)c1nc(CN(C)c2cccc(-n3cc(C)cn3)n2)cs1
Second: CCCCN(Cc1ccco1)C(=O)Nc1ccc(OC)c(C(=O)N(C)C)c1
The Z score of the first is lower: -0.61 for the first, 2.15 for the second.

First: COc1cc2c(cc1CNC(=O)c1ccc(C)cc1)OCCCO2
Second: Cc1ccc(C(=O)Nc2ccc3ncnc(N4CCCCC4)c3c2)c(C)c1
The Z score of the first is higher: 2.81 for the first, 1.3 for the second.

First: CC(=O)c1ccc2c(c1)N(Cc1cccc(C(=O)N3CCN(Cc4ccc5c(c4)OCO5)CC3)c1)C(=O)CO2
Second: Cc1cc(Cl)cc(C(=O)N2CCC[C@H](Cn3ccnn3)C2)c1
The Z score of the first is higher: 1.66 for the first, 0.9 for the second.

Going from `COCCN(C[C@@H]1CC=CCC1)c1cc(N2CCOCC2)ncn1` to `COc1ccc2nc3c(cc2c1)c(NC(=O)C1CCCCC1)nn3CC(C)C`, the Z score rises from 0.43 to 1.11.

Compared with `Cc1noc([C@H]2C[C@H](O)CN2c2ccc(C#N)nc2)n1`, `CCC[C@H]1CN(C(=O)CCc2ccccn2)C[C@@H]1N(C)C` is higher in Z score: 0.49 for the first, 2.38 for the second.

First: c1ccc2[nH]c(-c3ccc4[nH]c(C5CC5)nc4c3)nc2c1
Second: CCN(CC(=O)NCc1ccccn1)CC1CC1
The Z score of the first is higher: 0.54 for the first, 0.37 for the second.

For `C#CC1(OC(=O)Nc2ccccc2)CCCCC1`, the Z score was -0.64.
